# Read counts after selection give these values, which scatter widely.
# System: NB7
# Experiment: fold depletion of shRNA, plasmid library share / infected cells without Dox share (9 days) (ratio); higher = more depleted after infection (more toxic, leaky expression from a Tet-inducible vector; NB7 is a neuroblastoma line without caspase-8)
# [1] = shRNA pool: CD95L ORF + CD95L 3'UTR + Venus libraries
# [2] = shRNA pool: CD95 ORF + CD95 3'UTR + Venus libraries
# 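Also: shRNA barcodes quantified by deep sequencing of PCR amplicons from cellular DNA, counts expressed as percent of each subpool, ratio averaged over two biological duplicates.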
Sequence,fold depletion of shRNA [1],fold depletion of shRNA [2]
GATATTGTGAAGTACATATTA,0.49,–
GATCAAGAATGACAATGTCCA,–,1.68
GATCAATGAAACTGGGCTGTA,2.31,–
GATCACATGGTCCTGCTGGAG,2.13,3.33
GATCACTCTCGGCATGGACGA,–,2.06
GATCATATTTATGTAAAGTAT,–,0.88
GATCATTTATATGTCAACGTA,0.681,–
GATCCGCCACAACATCGAGGA,0.579,1.42
GATCTAACTTGGGGTGGCTTT,–,3.2
GATCTACTGGGTGGACAGCAG,0.998,–
GATCTCAAAAAAGCCAATCTT,–,1.2
GATCTGCACCACCGGCAAGCT,1.21,0.667
GATCTGGTGATGATGGAGGGG,0.803,–
GATGAAAGATTAAGATTATGC,–,1.39
GATGAACCAGACTGCGTGCCC,–,2.44
GATGAAGGACATGGCTTAGAA,–,1.16
GATGAGATCAAGAATGACAAT,–,1.38
GATGAGCTACTGCACTACTGG,1.47,–
GATGATGAGCTACTGCACTAC,1.69,–
GATGCACACAGCATCATCTTT,1.01,–
GATGCCACCTACGGCAAGCTG,1.91,3.26
GATGGAAAAGGAAGACTAGAG,3.21,–
GATGGCCAATTCTGCCATAAG,–,0.555
GATGTAAACCAAACTTTTTTT,–,0.751
GATGTAGATTGTGTGATGAAG,–,1.49

Sequence,fold depletion of shRNA [1],fold depletion of shRNA [2]
GATGTGCATTTTTGTGAAATG,0.651,–
GATGTTGACTTGAGTAAATAT,–,0.952
GATGTTTAAAATCTAGTTGGG,–,1.98
GATGTTTCAGCTCTTCCACCT,1.19,–
GATGTTTTCCTATAATATAAT,0.825,–
GATGTTTTGGGGACTCATTTC,6.91,–
GATGTTTTTCATGGTTCTGGT,2.96,–
GATTAAAGATCTCAAAAAAGC,–,1.1
GATTATCGTCCAAAAGTGTTA,–,1.6
GATTATGCTCTGGCATCTAAC,–,0.738
GATTCTCCTTACTACTATCCT,–,1.13
GATTCTGTAGTATGAATGTAA,–,1.3
GATTCTTAATAGCTGGCTGTA,–,1.45
GATTCTTATTTTTCCCCCACC,–,1.61
GATTCTTTCCATTATGATTCT,1.42,–
GATTCTTTGTTACAGGCACCG,3.86,–
GATTGAAAAGGACACCTTTTA,0.815,–
GATTGGAATTGAGGAAGACTG,–,0.973
GATTGGGCCTGGGGATGTTTC,2.73,–
GATTGTCAGCTACTAATGATG,2.57,–
GATTTAAGATTCTCCTTACTA,–,0.939
GATTTAAGGGATGGAAAAGGA,0.93,–
GATTTAGGAATTGCTCTTGTC,–,1.88
GATTTTACCATATTTCTAAAC,–,0.93
GATTTTGAATGCTTCCTGACA,2.13,–

Sequence,fold depletion of shRNA [1],fold depletion of shRNA [2]
GATTTTTAATATCTCATGATT,–,0.743
GATTTTTTTGCCCCTTGTGTT,–,8.64
GCAAAGACCCCAACGAGAAGC,1.45,1.79
GCAAATAGGCCACCCCAGTCC,11.7,–
GCAACATCCTGGGGCACAAGC,1.6,1.71
GCAACTACAAGACCCGCGCCG,0.562,0.88
GCAAGACTGCCCTTAGAAATT,–,5.32
GCAAGAGAGATGTTTTGGGGA,2.09,–
GCAAGCTGACCCTGAAGCTGA,0.782,1.31
GCAAGCTGCCCGTGCCCTGGC,–,1.71
GCAAGGGCGAGGAGCTGTTCA,0.708,1.19
GCAATAAATTTATCTGATGTT,–,0.741
GCAATCAAAGATGATAAAATA,–,0.931
GCAATGGTAAAATCATCATCT,–,3.28
GCAATTAGTGTTTGAAAAGAT,–,1.37
GCAATTGTAGGGGTGTGTGTG,2.52,–
GCACACAGCATCATCTTTGGA,6.03,–
GCACACTCACCAGCAACACCA,–,1.35
GCACAGAAAGGAAAACCAAGG,–,0.374
GCACAGTCAATGGGGATGAAC,–,2
GCACAGTTCTTCCCTGTCCAA,6.62,–
GCACAGTTTATTGGTGTCATA,–,1.83
GCACCAAATGTGAACATGGAA,–,3.03
GCACCACCGGCAAGCTGCCCG,0.692,0.549
GCACCATCTTCTTCAAGGACG,3.74,2.37
